# Assay results reported in the supplement of paper PMC8728848.
# Some of the results follow.
# B1: mLPHN-1 (Mus musculus), Q80TR1 (protein)
# chain: MARLAAALWSLCVTTVLVTSATQGLSRAGLPFGLMRRELACEGYPIELRCPGSDVIMVENANYGRTDDKICDADPFQMENVQCYLPDAFKIMSQRCNNRTQCVVVAGSDAFPDPCPGTYKYLEVQYDCVPYIFVCPGTLQKVLEPTSTHESEHQSGAWCKDPLQAGDRIYVMPWIPYRTDTLTEYASWEDYVAARHTTTYRLPNRVDGTGFVVYDGAVFYNKERTRNIVKYDLRTRIKSGETVINTANYHDTSPYRWGGKTDIDLAVDENGLWVIYATEGNNGRLVVSQLNPYTLRFEGTWETGYDKRSASNAFMVCGVLYVLRSVYVDDDSEAAGNRVDYAFNTNANREEPVSLAFPNPYQFVSSVDYNPRDNQLYVWNNYFVVRYSLEFGPPDPSAGPATSPPLSTTTTARPTPLTSTASPAATTPLRRAPLTTHPVGAINQLGPDLPPATAPAPSTRRPPAPNLHVSPELFCEPREVRRVQWPATQQGMLVERPCPKGTRGIASFQCLPALGLWNPRGPDLSNCTSPWVNQVAQKIKSGENAANIASELARHTRGSIYAGDVSSSVKLMEQLLDILDAQLQALRPIERESAGKNYNKMHKRERTCKDYIKAVVETVDNLLRPEALESWKDMNATEQVHTATMLLDVLEEGAFLLADNVREPARFLAAKQNVVLEVTVLNTEGQVQELVFPQEYPSENSIQLSANTIKQNSRNGVVKVVFILYNNLGLFLSTENATVKLAGEAGTGGPGGASLVVNSQVIAASINKESSRVFLMDPVIFTVAHLEAKNHFNANCSFWNYSERSMLGYWSTQGCRLVESNKTHTTCACSHLTNFAVLMAHREIYQGRINELLLSVITWVGIVISLVCLAICISTFCFLRGLQTDRNTIHKNLCINLFLAELLFLVGIDKTQYEVACPIFAGLLHYFFLAAFSWLCLEGVHLYLLLVEVFESEYSRTKYYYLGGYCFPALVVGIAAAIDYRSYGTEKACWLRVDNYFIWSFIGPVSFVIVVNLVFLMVTLHKMIRSSSVLKPDSSRLDNIKSWALGAIALLFLLGLTWAFGLLFINKESVVMAYLFTTFNAFQGVFIFVFHCALQKKVHKEYSKCLRHSYCCIRSPPGGTHGSLKTSAMRSNTRYYTGTQSRIRRMWNDTVRKQTESSFMAGDINSTPTLNRGTMGNHLLTNPVLQPRGGTSPYNTLIAESVGFNPSSPPVFNSPGSYREPKHPLGGREACGMDTLPLNGNFNNSYSLRSGDFPPGDGGPEPPRGRNLADAAAFEKMIISELVHNNLRGASGGAKGPPPEPPVPPVPGVSEDEAGGPGSADRAEIELLYKALEEPLLLPRAQSVLYQSDLDESESCTAEDGATSRPLSSPPGRDSLYASGANLRDSPSYPDSSPEGPNEALPPPPPAPPGPPEIYYTSRPPALVARNPLQGYYQVRRPSHEGYLAAPSLEGPGPDGDGQMQLVTSL
# What was measured:
# Assay in all cases: glycan array binding signal (z-score within array); higher = stronger binding
# Conditions in all cases: glycan notation: IUPAC condensed, linker removed
# [1] = target: Gal(b1-4)GlcNAc(b1-3)Gal(b1-4)GlcNAc(b1-3)Gal(b1-4)GlcNAc
# Summary of the method: (§1)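 Glycan array data came from 3228 arrays in the Consortium for Functional Glycomics database, and only arrays with an available protein sequence were kept. Glycan names were put into IUPAC-condensed notation, and columns mapping to the same glycan were averaged. The binding signal is a within-array Z-score, averaged across arrays of one protein sequence run at different concentrations or buffers and across linkers. A negative Z-score can be read as non-binding.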
# [2] = target: Gal(b1-4)GlcNAc(b1-3)Gal(b1-4)[Fuc(a1-3)]GlcNAc(b1-3)Gal(b1-4)[Fuc(a1-3)]GlcNAc
# Summary of the method: as §1
# [3] = target: Gal(b1-4)GlcNAc(b1-3)GalNAc
# Summary of the method: as §1
# [4] = target: Gal(b1-4)GlcNAc(b1-3)[Gal(b1-4)GlcNAc(b1-6)]Gal(b1-4)GlcNAc
# Summary of the method: as §1
# [5] = target: Gal(b1-4)GlcNAc(b1-3)[GlcNAc(b1-6)]Gal(b1-4)GlcNAc
# Summary of the method: as §1
# [6] = target: Gal(b1-4)GlcNAc(b1-6)Gal(b1-4)GlcNAc
# Summary of the method: as §1
# [7] = target: Gal(b1-4)GlcNAc(b1-6)Gal(b1-4)GlcNAc(b1-6)GalNAc
# Summary of the method: as §1
# [8] = target: Gal(b1-4)GlcNAc(b1-6)GalNAc
# Summary of the method: as §1
# [9] = target: Gal(b1-4)GlcNAc(b1-6)[Gal(b1-3)]GalNAc
# Summary of the method: as §1
# Gal3S(b1-3)GalNAc = target: Gal3S(b1-3)GalNAc
# Summary of the method: as §1
# Gal3S(b1-3)GlcNAc = target: Gal3S(b1-3)GlcNAc
# Summary of the method: as §1
# [10] = target: Gal3S(b1-3)[Fuc(a1-4)]GlcNAc
# Summary of the method: as §1
# Gal3S(b1-4)Glc = target: Gal3S(b1-4)Glc
# Summary of the method: as §1
# Gal3S(b1-4)Glc6S = target: Gal3S(b1-4)Glc6S
# Summary of the method: as §1
# Gal3S(b1-4)GlcNAc = target: Gal3S(b1-4)GlcNAc
# Summary of the method: as §1
# Gal3S(b1-4)GlcNAc6S = target: Gal3S(b1-4)GlcNAc6S
# Summary of the method: as §1
# [11] = target: Gal3S(b1-4)[Fuc(a1-3)]Glc
# Summary of the method: as §1
# Gal3S4S(b1-4)GlcNAc = target: Gal3S4S(b1-4)GlcNAc
# Summary of the method: as §1
# Gal3S6S(b1-4)GlcNAc = target: Gal3S6S(b1-4)GlcNAc
# Summary of the method: as §1
# Gal3S6S(b1-4)GlcNAc6S = target: Gal3S6S(b1-4)GlcNAc6S
# Summary of the method: as §1
# Gal4S(b1-4)GlcNAc = target: Gal4S(b1-4)GlcNAc
# Summary of the method: as §1
# Gal4S6S(b1-4)GlcNAc = target: Gal4S6S(b1-4)GlcNAc
# Summary of the method: as §1
# Gal6S(b1-4)Glc = target: Gal6S(b1-4)Glc
# Summary of the method: as §1
# Gal6S(b1-4)Glc6S = target: Gal6S(b1-4)Glc6S
# Summary of the method: as §1
# Gal6S(b1-4)GlcNAc = target: Gal6S(b1-4)GlcNAc
# Summary of the method: as §1
# Gal6S(b1-4)GlcNAc6S = target: Gal6S(b1-4)GlcNAc6S
# Summary of the method: as §1
# GalNAc(a1-3)Gal = target: GalNAc(a1-3)Gal
# Summary of the method: as §1
# GalNAc(a1-3)GalNAc = target: GalNAc(a1-3)GalNAc
# Summary of the method: as §1
# GalNAc(b1-3)Gal = target: GalNAc(b1-3)Gal
# Summary of the method: as §1
# [12] = target: GalNAc(b1-3)Gal(a1-4)Gal(b1-4)GlcNAc
# Summary of the method: as §1
# GalNAc(b1-3)GalNAc = target: GalNAc(b1-3)GalNAc
# Summary of the method: as §1
# GalNAc(b1-4)GlcNAc = target: GalNAc(b1-4)GlcNAc
# Summary of the method: as §1
# Glc(a1-4)Glc = target: Glc(a1-4)Glc
# Summary of the method: as §1
# Glc(a1-6)Glc(a1-6)Glc = target: Glc(a1-6)Glc(a1-6)Glc
# Summary of the method: as §1
# Glc(b1-4)Glc = target: Glc(b1-4)Glc
# Summary of the method: as §1
# Glc(b1-6)Glc = target: Glc(b1-6)Glc
# Summary of the method: as §1
# GlcA(b1-3)Gal = target: GlcA(b1-3)Gal
# Summary of the method: as §1
# GlcA(b1-3)GlcNAc = target: GlcA(b1-3)GlcNAc
# Summary of the method: as §1
# GlcA(b1-6)Gal = target: GlcA(b1-6)Gal
# Summary of the method: as §1
# [13] = target: GlcNAc(a1-3)Gal(b1-4)GlcNAc
# Summary of the method: as §1
# [14] = target: GlcNAc(a1-6)Gal(b1-4)GlcNAc
# Summary of the method: as §1
# [15] = target: GlcNAc(b1-2)Gal(b1-3)GalNAc
# Summary of the method: as §1
# [16] = target: GlcNAc(b1-2)Man(a1-3)[GlcNAc(b1-2)Man(a1-6)]Man(b1-4)GlcNAc(b1-4)GlcNAc
# Summary of the method: as §1
# GlcNAc(b1-3)Gal = target: GlcNAc(b1-3)Gal
# Summary of the method: as §1
# [17] = target: GlcNAc(b1-3)Gal(b1-3)GalNAc
# Summary of the method: as §1
binder,measurement,setting,value
B1,glycan array binding signal (z-score),[1],-0.382
same,glycan array binding signal (z-score),[2],0.078
same,glycan array binding signal (z-score),[3],-0.005
same,glycan array binding signal (z-score),[4],0.085
same,glycan array binding signal (z-score),[5],0.164
same,glycan array binding signal (z-score),[6],-0.114
same,glycan array binding signal (z-score),[7],-0.313
same,glycan array binding signal (z-score),[8],-0.096
same,glycan array binding signal (z-score),[9],-0.368
same,glycan array binding signal (z-score),Gal3S(b1-3)GalNAc,-0.307
same,glycan array binding signal (z-score),Gal3S(b1-3)GlcNAc,2.08
same,glycan array binding signal (z-score),[10],-0.155
same,glycan array binding signal (z-score),Gal3S(b1-4)Glc,-0.362
same,glycan array binding signal (z-score),Gal3S(b1-4)Glc6S,-0.26
same,glycan array binding signal (z-score),Gal3S(b1-4)GlcNAc,0.39
same,glycan array binding signal (z-score),Gal3S(b1-4)GlcNAc6S,-0.192
same,glycan array binding signal (z-score),[11],0.673
same,glycan array binding signal (z-score),Gal3S4S(b1-4)GlcNAc,0.041
same,glycan array binding signal (z-score),Gal3S6S(b1-4)GlcNAc,0.333
same,glycan array binding signal (z-score),Gal3S6S(b1-4)GlcNAc6S,-0.407
same,glycan array binding signal (z-score),Gal4S(b1-4)GlcNAc,0.468
same,glycan array binding signal (z-score),Gal4S6S(b1-4)GlcNAc,-0.274
same,glycan array binding signal (z-score),Gal6S(b1-4)Glc,0.775
same,glycan array binding signal (z-score),Gal6S(b1-4)Glc6S,1.13
same,glycan array binding signal (z-score),Gal6S(b1-4)GlcNAc,1.27
same,glycan array binding signal (z-score),Gal6S(b1-4)GlcNAc6S,0.166
same,glycan array binding signal (z-score),GalNAc(a1-3)Gal,0.869
same,glycan array binding signal (z-score),GalNAc(a1-3)GalNAc,-0.202
same,glycan array binding signal (z-score),GalNAc(b1-3)Gal,0.793
same,glycan array binding signal (z-score),[12],0.812
same,glycan array binding signal (z-score),GalNAc(b1-3)GalNAc,0.146
same,glycan array binding signal (z-score),GalNAc(b1-4)GlcNAc,0.132
same,glycan array binding signal (z-score),Glc(a1-4)Glc,-0.159
same,glycan array binding signal (z-score),Glc(a1-6)Glc(a1-6)Glc,0.283
same,glycan array binding signal (z-score),Glc(b1-4)Glc,-0.267
same,glycan array binding signal (z-score),Glc(b1-6)Glc,-0.288
same,glycan array binding signal (z-score),GlcA(b1-3)Gal,-0.144
same,glycan array binding signal (z-score),GlcA(b1-3)GlcNAc,-0.194
same,glycan array binding signal (z-score),GlcA(b1-6)Gal,0.017
same,glycan array binding signal (z-score),[13],-0.379
same,glycan array binding signal (z-score),[14],0.099
same,glycan array binding signal (z-score),[15],-0.412
same,glycan array binding signal (z-score),[16],-0.269
same,glycan array binding signal (z-score),GlcNAc(b1-3)Gal,0.059
same,glycan array binding signal (z-score),[17],0.047
